# Experimental data from the supplement of paper PMC3334620.
# Whole data set: some 33,000 sequences, median “E-score (-0.5 to 0.5)” near -0.013, cut for the highest 2% near 0.3. The list shows a part of the results.
# Biological target: T1, Msn1 (UniProt P22148)
# T1 sequence: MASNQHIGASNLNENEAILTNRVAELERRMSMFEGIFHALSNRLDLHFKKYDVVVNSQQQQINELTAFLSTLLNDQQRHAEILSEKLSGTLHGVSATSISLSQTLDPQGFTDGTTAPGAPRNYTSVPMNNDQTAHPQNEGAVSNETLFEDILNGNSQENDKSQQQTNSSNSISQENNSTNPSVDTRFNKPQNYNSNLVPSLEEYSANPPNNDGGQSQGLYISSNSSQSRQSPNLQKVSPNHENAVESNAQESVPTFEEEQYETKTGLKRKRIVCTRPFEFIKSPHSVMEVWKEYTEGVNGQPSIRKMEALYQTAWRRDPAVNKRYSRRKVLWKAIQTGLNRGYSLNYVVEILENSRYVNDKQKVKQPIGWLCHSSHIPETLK
# Experiment: PBM E-score (8-mer binding enrichment) (E-score (-0.5 to 0.5)); higher = stronger / more preferred TF binding; most listed sequences are background and not binding sites
# Settings: protein concentration: 200 nM; construct: GST-full length
# How it was run: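 E-scores (a modified Wilcoxon-Mann-Whitney statistic) were assigned by the Universal PBM Analysis Suite to every ungapped eight-base word pooled with its reverse complement. The input came from universal all-10-mer Agilent arrays made double-stranded by primer extension and probed with GST-tagged yeast transcription factors at about 100-200 nM. Fluorescent anti-GST detected bound protein, and masliner normalised the scans.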
row,Sequence,PBM E-score
1,AGGTCTCA,0.161
2,ATCGTACA,0.0581
3,CATCCTAG,-0.132
4,AGGAAGAG,-0.0758
5,ACACTCTA,-0.0709
6,CTTCGACA,0.0726
7,ACTAGTAG,0.0879
8,AGAACGAT,0.114
9,ATGCGCAC,-0.00069
10,CACTCTTA,-0.0192
11,GACACCTC,0.0624
12,CTTGAAAC,0.116
13,GCCCGGGC,-0.0372
14,GCGTGTCA,0.136
15,ACTCCAGA,-0.141
16,GGGTGGTA,-0.173
17,CGTTGAAC,-0.0315
18,AGCGATAA,-0.0628
19,CGTAACAC,-0.014
20,ACAGGCCT,-0.0369
21,AGCTTCCA,-0.0343
22,CTTAGAGC,0.0886
23,ACAGAGGT,-0.112
24,CCAACTTC,-0.0726
25,GACCAGTA,-0.136

row,Sequence,PBM E-score
1,GTGAATTA,0.0971
2,ACCCCCAG,-0.243
3,CTCTGTAA,-0.151
4,GCTTCCGA,0.0704
5,ATATGGTG,0.0957
6,ATCTGCCG,0.0828
7,ACAATTTC,0.279
8,CCATCCAA,-0.0179
9,CATTCGGA,0.276
10,CGGGGTAA,0.0107
11,CAAGTAAA,0.1
12,CGTTGTTC,0.0573
13,CGTGCTAC,-0.245
14,ACCTGGTC,-0.0253
15,CTGGTAGA,-0.0853
16,GACCACGC,0.0106
17,CCACACGC,-0.207
18,TCTCGCCA,-0.0723
19,AATTTAAA,0.147
20,AGGTAATG,-0.0384
21,GCTTGGAA,-0.00891
22,ACACTTCG,0.155
23,GGACCTAC,-0.0262
24,CACAGAGG,-0.122
25,CCTGGCCG,-0.0438

row,Sequence,PBM E-score
1,AAATTTCT,-0.0628
2,CCTATGCA,-0.112
3,CTCGTGAC,0.00678
4,ACGACCAA,0.12
5,CACCTACC,-0.0956
6,CAGAAAAA,0.0903
7,CATTCTAG,-0.0107
8,GGGCTAAA,-0.0212
9,ATCTCGAG,0.0342
10,AGCGGGGA,-0.124
11,CGGGTTTA,0.107
12,ACACCGCT,-0.0771
13,CCTACGCG,-0.0384
14,AGTGCTCG,-0.00373
15,GCTAGGAA,-0.177
16,CCAACAGA,0.0204
17,AGAGGCAA,-0.0984
18,ACCTTCTA,0.0596
19,GCCCCATA,-0.259
20,GGAGGCCA,-0.26
21,GAGCAATC,0.0308
22,ACACGTAC,0.22
23,CAACGGTC,-0.024
24,AGAGGCGA,-0.15
25,CATGGGCA,-0.05

row,Sequence,PBM E-score
1,GTGCAGCA,-0.256
2,AATTCACG,-0.0818
3,CCCGTGGC,-0.304
4,AATCCAAA,0.0673
5,GCCACCTA,-0.218
6,TAGGACAA,0.491
7,GCAAGTGA,0.12
8,AGGTTACA,-0.14
9,GCTGTTCA,-0.00393
10,ACAGAATA,0.0903
11,GAATACAC,0.018
12,GTCTATCA,0.156
13,CCGGGGAC,-0.113
14,ACATGATA,0.234
15,ACAGGAAA,0.137
16,ACCTCGAA,0.0707
17,ATTAGCCA,0.0736
18,ACATTACC,0.0974
19,ATTTAAGA,0.0224
20,ACGTAGCC,-0.252
21,CCCCTCAA,-0.341
22,AAGGTGTG,0.00988
23,GGGCTTAC,-0.234
24,ACAGGGCT,-0.194
25,CTACGTCC,0.107

row,Sequence,PBM E-score
1,GTACCCCA,-0.138
2,CCCTATCA,-0.16
3,ACAATTGT,0.363
4,ACCTATGA,-0.172
5,AGTAACCA,-0.104
6,AACCACTC,-0.123
7,AAGCATCT,-0.0811
8,CGAGCGAC,0.0386
9,AACTAACA,0.184
10,GTCAGTAA,0.0578
11,AATATCCG,0.256
12,ACCGGAAG,0.139
13,AGAGCTAT,-0.232
14,GTCTACAC,-0.0538
15,CCTACTGC,-0.156
16,CATCCCTA,0.127
17,CAGGACGA,0.0828
18,AGGTTCCC,-0.331
19,CGCTCTAG,-0.253
20,AAACTGCA,0.00799
21,CAGTATTA,0.0608
22,ACGAGAAT,0.122
23,CGCACTAG,-0.00831
24,CTATCCCC,-0.228
25,AATTGACC,0.0411

row,Sequence,PBM E-score
1,GGGACGCA,-0.0363
2,AACATCCC,0.0693
3,AAGTAGGG,0.114
4,CAACCTAC,-0.114
5,AGGGCCGG,-0.0394
6,AACTGGGC,-0.182
7,AACTTTTC,0.0925
8,AACGCGTA,0.0449
9,AGAACACG,0.169
10,ACCTTGCC,-0.013
11,ACGCCAAC,-0.055
12,GGCCGAGA,0.081
13,TGCTGGAA,-0.0423
14,CAACACAG,0.0232
15,GGCGTTGA,-0.102
16,GTTACTGA,0.171
17,CGGTTGAG,-0.0793
18,ATGTGCGG,-0.0574
19,ACTATTCC,0.0911
20,GGTACTGA,-0.118
21,GAGTCGCC,-0.162
22,GGCACTAC,-0.284
23,CGATTTAG,0.138
24,GCGCTAAA,-0.0257
25,GTTCGTTA,0.0345

row,Sequence,PBM E-score
1,AAGTCGGT,-0.0333
2,CCCTTGGC,-0.223
3,GTCTGGGA,-0.0635
4,AAATAGAA,-0.0849
5,GGGTAACC,-0.155
6,AAATATTC,0.124
7,CGAGTAAA,0.216
8,CATGCAGA,-0.0066
9,CTAGGCTA,-0.179
10,AGCGGCAC,-0.236
11,AATCGTAT,0.0866
12,AGGTGTAG,-0.211
13,GATATTAC,0.135
14,AGCGGTGC,-0.223
15,CGCGTTTC,-0.022
16,TCCCAAGA,0.185
17,GTAATGCA,-0.119
18,ACCTACAC,-0.21
19,GACCGGCA,-0.224
20,GTGATGAA,-0.127
21,GTAACGCA,-0.0553
22,CCAGAGTC,-0.0686
